# ± gives the standard deviation of the averaged measurements. Whole data set: some 33,000 sequences, median “E-score (dimensionless, -0.5 to 0.5)” near -0.049, cut for the highest 2% near 0.37. The list shows a part of the results.
# Test system: T1, PmTbr T-box DNA-binding domain (GST fusion)
# T1 sequence: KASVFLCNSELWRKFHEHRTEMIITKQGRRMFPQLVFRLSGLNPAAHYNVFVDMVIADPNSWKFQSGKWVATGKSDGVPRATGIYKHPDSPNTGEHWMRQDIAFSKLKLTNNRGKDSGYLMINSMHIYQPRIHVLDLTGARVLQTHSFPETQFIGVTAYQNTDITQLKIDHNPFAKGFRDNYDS
# Experiment: PBM E-score of 8-mer (E-score (dimensionless, -0.5 to 0.5)); Tbr is Tbrain of the sea star Patiria miniata (Pm) or the sea urchin Strongylocentrotus purpuratus (Sp); higher = stronger binding preference; most listed sequences are background and not binding sites
# Settings: the construct has about 5 more residues each side
# Procedure, shortened: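 Expression of GST-fused Tbr T-box DNA-binding domains, each holding the full T-box plus roughly five flanking residues, was carried out in BL21 E. coli at 20 °C, with purification by glutathione affinity chromatography. Universal Agilent arrays made double-stranded by primer extension were incubated with the protein at 200 nM in PBS (pH 7.5), then scanned and quantified. All ungapped 8-mers were scored from probe intensities, and each received an enrichment E-score from the Universal PBM Analysis Suite, averaged over duplicate arrays.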
row,Sequence,PBM E-score of 8-mer
1,GGTGACAA,0.47312 ± 1.4e-05
2,AGAAGTCC,0.0869 ± 0.022
3,CCGGCCGG,-0.086 ± 0.027
4,CTGAACGC,-0.0442 ± 0.051
5,CAATACGC,0.0538 ± 0.0064
6,AGGTGAGG,0.428 ± 0.013
7,CCCGGCAA,0.0288 ± 0.086
8,GCCCTGCC,0.0257 ± 0.0016
9,GCTTGCCA,0.185 ± 0.052
10,AGCGCGCT,0.0819 ± 0.0034
11,TCGGCGAA,-0.0298 ± 0.064
12,ACTACTAG,-0.15 ± 0.029
13,AGGTATTA,5e-06 ± 0.0054
14,ATTAAGTC,-0.233 ± 0.059
15,CATAATCG,-0.112 ± 0.03
16,CTACCGCA,0.0194 ± 0.041
17,AAGAGGTG,0.4261 ± 0.00096
18,ACTCTAAA,-0.1 ± 0.037
19,CTGAAGTC,-0.281 ± 0.071
20,CAAGAACA,-0.00474 ± 0.001
21,ATCTCCGC,-0.0197 ± 0.066
22,GGTATGTA,-0.1927 ± 0.0012

row,Sequence,PBM E-score of 8-mer
1,ACCCATCT,-0.0144 ± 0.026
2,CCACTTGC,0.158 ± 0.056
3,CGCAAAGC,-0.0712 ± 0.07
4,ACGAGGGA,-0.0369 ± 0.028
5,CTCCGAAA,-0.0688 ± 0.063
6,GAGATGGA,-0.2233 ± 0.0022
7,AAATGAAA,-0.000675 ± 0.0081
8,AGGCTTAA,-0.0924 ± 0.053
9,CGTCGGAA,-0.0307 ± 0.035
10,CGACTCGA,0.127 ± 0.0029
11,AGCCCATA,-0.141 ± 0.088
12,GACTGTGA,0.226 ± 0.0079
13,CTAGATGC,-0.0341 ± 0.036
14,AGGATTCC,-0.271 ± 0.03
15,GGCCGCCA,-0.0122 ± 0.039
16,CCATCTCC,-0.028 ± 0.048
17,AGCTCTTA,-0.242 ± 0.081
18,AGGAACCT,-0.16 ± 0.013
19,ATAGGCAA,-0.239 ± 0.018
20,ACTCGCTC,-0.0462 ± 0.042
21,ATGTTATA,-0.0814 ± 0.076
22,CTCAGGAA,-0.0745 ± 0.11

row,Sequence,PBM E-score of 8-mer
1,GATTAGGA,-0.247 ± 0.023
2,CTGAGACA,0.00251 ± 0.058
3,TTAAGCAA,-0.165 ± 0.013
4,AGTTTAAG,-0.0675 ± 0.0052
5,CCGCGTTA,0.112 ± 0.011
6,ATCCAGTG,-0.194 ± 0.025
7,GCCGGACA,-0.283 ± 0.1
8,ACGTCGGG,0.0241 ± 0.023
9,GCGCTCGA,-0.0432 ± 0.0033
10,TAATTCTA,-0.158 ± 0.0049
11,CTCCTGGA,-0.121 ± 0.006
12,AGATAGTC,-0.0975 ± 0.03
13,AAAAGGTT,-0.0316 ± 0.041
14,ATTCATCC,-0.239 ± 0.012
15,CAGTGATC,0.0318 ± 0.02
16,CCCTGAGG,-0.0476 ± 0.039
17,CCATAATA,-0.13 ± 0.1
18,TCTAGAGA,-0.0247 ± 0.0033
19,CGTATTAG,-0.0837 ± 0.007
20,GAATTACA,-0.107 ± 0.032
21,GCGGGAAA,0.0338 ± 0.0004
22,ATGTCGGA,-0.0551 ± 0.054

row,Sequence,PBM E-score of 8-mer
1,AGATCGAA,-0.0529 ± 0.024
2,GGCTGAAA,-0.122 ± 0.0051
3,CTCTCGCC,0.251 ± 0.015
4,AGTGGCCG,-0.0552 ± 0.03
5,CGTGACCC,0.0665 ± 0.017
6,GTTTCTTA,0.0867 ± 0.056
7,CCCATCGC,-0.0116 ± 0.037
8,ACGGTTAT,0.0253 ± 0.0073
9,CAATGAGA,-0.107 ± 0.036
10,ACCGTCCT,-0.11 ± 0.0051
11,CCTTGGAG,-0.183 ± 0.006
12,AAATTGGA,-0.0503 ± 0.068
13,ACCAGGTA,-0.0585 ± 0.034
14,AACGATTG,-0.0253 ± 0.067
15,AGGTAGTG,0.145 ± 0.01
16,GAGAAACA,0.146 ± 0.079
17,CGGAGGGA,-0.1 ± 0.014
18,CGGCCAAC,-0.109 ± 0.016
19,ATCCCTAA,-0.279 ± 0.043
20,GCAGCGGC,-0.0995 ± 0.015
